# Assay results: the supplement of paper PMC8728848
# This is one part of the list.
# B1: CaSRK1 (Capsicum annuum) (protein)
# chain: MALCKIFPFAFILLSCSCYLISGQRFDYPTANLSTTWINSVSAPHSIDYTDGSRIRAILLRGTFGPRYACGFYCNGNCESYLFAIFIVQTNSASQITSPAIGFPQVVWSANRNNPVKINSTLQLTAEGDLVLRDADGTLAWSTNTAGKSVAGLSLTDEGNLALFDSKNATVWQSFDHPTDALVPGQKLVPGMKLTASVSRTNWTAGGLFALSAIDNGLVAFVESNPPQKYFEASVGGSNTSGGSNYVKYLNGSLTLFTHSADTTELILISITPASSAQYMKLESNGHLKVYEWTSRGWREVDDLLTGFRGECNYPTVCGRYGICTMGQCSCPTSSSSRTYFRPIDVRRPSLGCSEVTKLTCQNTKKHSPLEVEDVDYFAFKAGISDTDLNTCKRACLEKCSCKAAFFRSGLNSSRTRGDCYLPTEIFSIMNNEKDRTRYDSVAFIKVQV
# What was measured:
# Assay in all cases: glycan array binding signal (z-score within array); higher = stronger binding
# Details in all cases: glycan notation: IUPAC condensed, linker removed
# [1] = target: Fuc(a1-2)Gal(b1-4)[Fuc(a1-3)]GlcNAc(b1-2)Man(a1-3)[Fuc(a1-2)Gal(b1-4)[Fuc(a1-3)]GlcNAc(b1-2)Man(a1-6)]Man(b1-4)GlcNAc(b1-4)[Fuc(a1-6)]GlcNAc
# Summary of the method: (§1)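 Glycan array data were curated from 3228 arrays in the Consortium for Functional Glycomics database and kept only where the protein sequence was available. Glycan names were converted to IUPAC-condensed notation, and columns mapping to the same glycan were averaged. The binding signal is a within-array Z-score, averaged across arrays of the same protein sequence at different concentrations or buffers and across linkers. Negative Z-scores can be read as non-binding.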
# [2] = target: Fuc(a1-2)Gal(b1-4)[Fuc(a1-3)]GlcNAc(b1-2)[Fuc(a1-2)Gal(b1-4)[Fuc(a1-3)]GlcNAc(b1-4)]Man(a1-3)[Fuc(a1-2)Gal(b1-4)[Fuc(a1-3)]GlcNAc(b1-2)Man(a1-6)]Man(b1-4)GlcNAc(b1-4)GlcNAc
# Summary of the method: as §1
# [3] = target: Fuc(a1-2)Gal(b1-4)[Fuc(a1-3)]GlcNAc(b1-3)Gal(b1-4)[Fuc(a1-3)]GlcNAc
# Summary of the method: as §1
# [4] = target: Fuc(a1-2)Gal(b1-4)[Fuc(a1-3)]GlcNAc(b1-3)Gal(b1-4)[Fuc(a1-3)]GlcNAc(b1-3)Gal(b1-4)[Fuc(a1-3)]GlcNAc
# Summary of the method: as §1
# [5] = target: Fuc(a1-2)Gal(b1-4)[Fuc(a1-3)]GlcNAc(b1-3)GalNAc
# Summary of the method: as §1
# [6] = target: Fuc(a1-2)Gal(b1-4)[Fuc(a1-3)]GlcNAc(b1-3)[Neu5Ac(a2-6)Gal(b1-4)GlcNAc(b1-6)]Gal(b1-4)Glc
# Summary of the method: as §1
# [7] = target: Fuc(a1-2)Gal3S(b1-4)GlcNAc
# Summary of the method: as §1
# [8] = target: Fuc(a1-2)Gal6S(b1-3)GlcNAc
# Summary of the method: as §1
# [9] = target: Fuc(a1-2)Gal6S(b1-3)GlcNAc6S
# Summary of the method: as §1
# Fuc(a1-2)Gal6S(b1-4)Glc = target: Fuc(a1-2)Gal6S(b1-4)Glc
# Summary of the method: as §1
# [10] = target: Fuc(a1-2)Gal6S(b1-4)Glc6S
# Summary of the method: as §1
# Fuc(a1-2)[Gal(a1-3)]Gal = target: Fuc(a1-2)[Gal(a1-3)]Gal
# Summary of the method: as §1
# [11] = target: Fuc(a1-2)[Gal(a1-3)]Gal(b1-3)GalNAc
# Summary of the method: as §1
# [12] = target: Fuc(a1-2)[Gal(a1-3)]Gal(b1-3)GalNAc(b1-3)Gal(a1-4)Gal(b1-4)Glc
# Summary of the method: as §1
# [13] = target: Fuc(a1-2)[Gal(a1-3)]Gal(b1-3)GlcNAc
# Summary of the method: as §1
# [14] = target: Fuc(a1-2)[Gal(a1-3)]Gal(b1-3)GlcNAc(b1-2)Man(a1-3)[Fuc(a1-2)[Gal(a1-3)]Gal(b1-3)GlcNAc(b1-2)Man(a1-6)]Man(b1-4)GlcNAc(b1-4)GlcNAc
# Summary of the method: as §1
# [15] = target: Fuc(a1-2)[Gal(a1-3)]Gal(b1-3)GlcNAc(b1-2)Man(a1-3)[Fuc(a1-2)[Gal(a1-3)]Gal(b1-3)GlcNAc(b1-2)Man(a1-6)]Man(b1-4)GlcNAc(b1-4)[Fuc(a1-6)]GlcNAc
# Summary of the method: as §1
# [16] = target: Fuc(a1-2)[Gal(a1-3)]Gal(b1-3)GlcNAc(b1-3)GalNAc
# Summary of the method: as §1
# [17] = target: Fuc(a1-2)[Gal(a1-3)]Gal(b1-3)GlcNAc(b1-6)GalNAc
# Summary of the method: as §1
# [18] = target: Fuc(a1-2)[Gal(a1-3)]Gal(b1-4)Glc
# Summary of the method: as §1
# [19] = target: Fuc(a1-2)[Gal(a1-3)]Gal(b1-4)GlcNAc
# Summary of the method: as §1
# [20] = target: Fuc(a1-2)[Gal(a1-3)]Gal(b1-4)GlcNAc(b1-2)Man
# Summary of the method: as §1
# [21] = target: Fuc(a1-2)[Gal(a1-3)]Gal(b1-4)GlcNAc(b1-2)Man(a1-3)[Fuc(a1-2)[Gal(a1-3)]Gal(b1-4)GlcNAc(b1-2)Man(a1-6)]Man(b1-4)GlcNAc(b1-4)GlcNAc
# Summary of the method: as §1
# [22] = target: Fuc(a1-2)[Gal(a1-3)]Gal(b1-4)GlcNAc(b1-2)Man(a1-3)[Fuc(a1-2)[Gal(a1-3)]Gal(b1-4)GlcNAc(b1-2)Man(a1-6)]Man(b1-4)GlcNAc(b1-4)[Fuc(a1-6)]GlcNAc
# Summary of the method: as §1
# [23] = target: Fuc(a1-2)[Gal(a1-3)]Gal(b1-4)GlcNAc(b1-3)GalNAc
# Summary of the method: as §1
# [24] = target: Fuc(a1-2)[Gal(a1-3)]Gal(b1-4)GlcNAc(b1-6)GalNAc
# Summary of the method: as §1
# [25] = target: Fuc(a1-2)[Gal(a1-3)]Gal(b1-4)[Fuc(a1-3)]Glc
# Summary of the method: as §1
# [26] = target: Fuc(a1-2)[Gal(a1-3)]Gal(b1-4)[Fuc(a1-3)]GlcNAc
# Summary of the method: as §1
# [27] = target: Fuc(a1-2)[Gal(a1-3)]Gal(b1-4)[Fuc(a1-3)]GlcNAc(b1-3)GalNAc
# Summary of the method: as §1
# [28] = target: Fuc(a1-2)[Gal(a1-4)]Gal(b1-4)GlcNAc
# Summary of the method: as §1
# [29] = target: Fuc(a1-2)[GalNAc(a1-3)]Gal
# Summary of the method: as §1
# [30] = target: Fuc(a1-2)[GalNAc(a1-3)]Gal(b1-3)GalNAc(a1-3)[Fuc(a1-2)]Gal(b1-4)GlcNAc
# Summary of the method: as §1
# [31] = target: Fuc(a1-2)[GalNAc(a1-3)]Gal(b1-3)GalNAc(b1-3)Gal(a1-4)Gal(b1-4)Glc
# Summary of the method: as §1
# [32] = target: Fuc(a1-2)[GalNAc(a1-3)]Gal(b1-3)GlcNAc
# Summary of the method: as §1
# [33] = target: Fuc(a1-2)[GalNAc(a1-3)]Gal(b1-3)GlcNAc(b1-2)Man(a1-3)[Fuc(a1-2)[GalNAc(a1-3)]Gal(b1-3)GlcNAc(b1-2)Man(a1-6)]Man(b1-4)GlcNAc(b1-4)GlcNAc
# Summary of the method: as §1
# [34] = target: Fuc(a1-2)[GalNAc(a1-3)]Gal(b1-3)GlcNAc(b1-2)Man(a1-3)[Fuc(a1-2)[GalNAc(a1-3)]Gal(b1-3)GlcNAc(b1-2)Man(a1-6)]Man(b1-4)GlcNAc(b1-4)[Fuc(a1-6)]GlcNAc
# Summary of the method: as §1
# [35] = target: Fuc(a1-2)[GalNAc(a1-3)]Gal(b1-3)GlcNAc(b1-3)GalNAc
# Summary of the method: as §1
# [36] = target: Fuc(a1-2)[GalNAc(a1-3)]Gal(b1-3)GlcNAc(b1-6)GalNAc
# Summary of the method: as §1
binder,measurement,setting,value
B1,glycan array binding signal (z-score),[1],-0.395
same,glycan array binding signal (z-score),[2],0.156
same,glycan array binding signal (z-score),[3],-0.51
same,glycan array binding signal (z-score),[4],-0.508
same,glycan array binding signal (z-score),[5],-0.35
same,glycan array binding signal (z-score),[6],-0.374
same,glycan array binding signal (z-score),[7],-0.245
same,glycan array binding signal (z-score),[8],-0.016
same,glycan array binding signal (z-score),[9],2.31
same,glycan array binding signal (z-score),Fuc(a1-2)Gal6S(b1-4)Glc,-0.33
same,glycan array binding signal (z-score),[10],0.695
same,glycan array binding signal (z-score),Fuc(a1-2)[Gal(a1-3)]Gal,-0.38
same,glycan array binding signal (z-score),[11],-0.441
same,glycan array binding signal (z-score),[12],0.004
same,glycan array binding signal (z-score),[13],2.37
same,glycan array binding signal (z-score),[14],-0.546
same,glycan array binding signal (z-score),[15],2.11
same,glycan array binding signal (z-score),[16],-0.199
same,glycan array binding signal (z-score),[17],-0.111
same,glycan array binding signal (z-score),[18],-0.09
same,glycan array binding signal (z-score),[19],-0.284
same,glycan array binding signal (z-score),[20],-0.359
same,glycan array binding signal (z-score),[21],-0.56
same,glycan array binding signal (z-score),[22],-0.368
same,glycan array binding signal (z-score),[23],-0.527
same,glycan array binding signal (z-score),[24],0.559
same,glycan array binding signal (z-score),[25],-0.521
same,glycan array binding signal (z-score),[26],0.067
same,glycan array binding signal (z-score),[27],-0.456
same,glycan array binding signal (z-score),[28],-0.109
same,glycan array binding signal (z-score),[29],-0.526
same,glycan array binding signal (z-score),[30],-0.516
same,glycan array binding signal (z-score),[31],-0.167
same,glycan array binding signal (z-score),[32],-0.186
same,glycan array binding signal (z-score),[33],-0.402
same,glycan array binding signal (z-score),[34],-0.47
same,glycan array binding signal (z-score),[35],0.113
same,glycan array binding signal (z-score),[36],-0.35
